Each structure is given as a SMILES string. The campaign covered roughly 39,000 compounds. About 220 (0.56%) showed activity. Some of the results follow.
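Note: static incubation at 37 °C against the wild-type strain, values averaged over two biological replicates.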

This experiment has as its system Escherichia coli K-12 BW25113. Briefly: relative growth (OD600 normalised to plate interquartile mean) (fraction); higher = less growth inhibition, active = 0.2 or less. Conditions: 50 µM; LB; incubation time: overnight (16-24 h).
As to `COCC#Cc1ccc2c(c1)O[C@@H](CN(C)C(=O)COC)[C@H](C)CN([C@@H](C)CO)S2(=O)=O`, the relative growth was inactive: 0.976.
The result for `C[C@@H]1CN([C@H](C)CO)C(=O)c2cc(NC(=O)Nc3ccc(C(F)(F)F)cc3)ccc2O[C@@H](C)CCCCO[C@@H]1CN(C)Cc1ccc2c(c1)OCO2` reads inactive: 1.03.
As to `C[C@@H]1CCCCO[C@H](CN(C)C(=O)c2ccccc2)[C@H](C)CN([C@H](C)CO)C(=O)c2cc(NS(=O)(=O)c3cccs3)ccc2O1`, the relative growth is inactive: 0.987.
As for `C[C@@H]1CN([C@H](C)CO)C(=O)c2cc(NC(=O)Nc3ccc(C(F)(F)F)cc3)ccc2O[C@H]1CN(C)C(=O)NC1CCCCC1`, the figure is inactive: 0.838.
As for `COc1ccc(CNC(=O)C[C@@H]2CC[C@@H]3[C@@H](COc4ccc(NC(=O)C(C)C)cc4C(=O)N3C)O2)cc1`, the figure is inactive: 1; as for `CN(C)CCCN1C(=O)[C@@]2(Cc3ccccc31)c1ccccc1C(=O)N(Cc1ccccc1)[C@H]2c1ccc(CO)cc1`, inactive: 1.
For `C[C@@H]1CN([C@H](C)CO)C(=O)c2cc(NC(=O)Nc3ccc(C(F)(F)F)cc3)ccc2O[C@@H](C)CCCCO[C@@H]1CN(C)S(=O)(=O)c1cn(C)cn1`, the relative growth is inactive: 1.05.
As for `Cc1ccc(S(=O)(=O)N(C)C[C@@H]2Oc3ccc(N(C)C)cc3CC(=O)N([C@@H](C)CO)C[C@H]2C)cc1`, the figure is inactive: 0.991.
As for `O=C(O)CNS(=O)(=O)c1ccccc1F`, the figure is inactive: 1.05.
For `Cc1noc(C)c1NC(=O)N(C)C[C@@H]1Oc2ncc(C#CCN(C)C)cc2C(=O)N([C@H](C)CO)C[C@H]1C`, the relative growth is inactive: 0.999.
As for `O=C(C[C@H]1CC[C@@H]2[C@H](COC[C@@H](O)CN2S(=O)(=O)c2ccc(Oc3ccccc3)cc2)O1)NCCN1CCCCC1`, the figure is inactive: 1.01; as for `CNC(=O)c1ccc2c(c1)OCO2`, inactive: 1.03.
In the case of `O=C(C[C@H]1C=C[C@@H](NC(=O)c2ccncc2)[C@H](CO)O1)NCc1ccncn1`, the relative growth is inactive: 1.02.
As for `C[C@@H]1CN([C@H](C)CO)C(=O)c2cccc(NC(=O)NC3CCCCC3)c2O[C@H]1CN(C)C(=O)Nc1cccc2ccccc12`, the figure is inactive: 0.983; as for `c1ccc(Oc2ccccc2)cc1`, inactive: 1.04.
The result for `COc1ccc(-c2cnc3c(c2)C(=O)N([C@H](C)CO)C[C@@H](C)[C@H](CN(C)C(=O)Cc2ccccn2)O3)cc1` reads inactive: 1.01; that for `Cc1noc(C)c1NC(=O)Nc1ccc2c(c1)C(=O)N([C@@H](C)CO)C[C@H](C)[C@@H](CN(C)Cc1ccncc1)OCCCC[C@@H](C)O2`, inactive: 0.964.
The result for `O=C(CN1CCOCC1)NCC[C@@H]1CC[C@H](NC(=O)c2ccccc2F)[C@@H](CO)O1` reads inactive: 0.979; that for `COc1ccc(S(=O)(=O)N(C)C[C@@H]2Oc3cc(Br)ccc3S(=O)(=O)N([C@H](C)CO)C[C@@H]2C)cc1`, inactive: 1.04; that for `COc1ccc(S(=O)(=O)N(C)C[C@H]2Oc3ccc(NC(=O)c4ccncc4)cc3CC(=O)N([C@H](C)CO)C[C@H]2C)cc1`, inactive: 0.984.
Turning to `C[C@@H]1CCCCO[C@@H](CN(C)S(C)(=O)=O)[C@H](C)CN([C@H](C)CO)C(=O)c2cc(NS(C)(=O)=O)ccc2O1`, the relative growth was inactive: 0.974.
`CN1C(=O)c2cc(NC(=O)c3ccc(F)c(F)c3)ccc2OC[C@H]2O[C@@H](CC(=O)N3CCOCC3)CC[C@H]21`: the relative growth was inactive: 0.933.
Consider `CO[C@@H](CN(C)S(=O)(=O)c1ccc(Cl)cc1)[C@H](C)CN([C@H](C)CO)S(=O)(=O)c1cccc(Cl)c1`, for which the relative growth is inactive: 1.02.
The result for `C[C@H]1CCCCO[C@@H](CN(C)C(=O)Nc2ccc(F)cc2)[C@@H](C)CN([C@@H](C)CO)C(=O)c2cc(NS(=O)(=O)c3ccccc3)ccc2O1` reads inactive: 1.01; that for `C[C@@H](O)C#Cc1cnc2c(c1)C(=O)N([C@@H](C)CO)C[C@H](C)[C@@H](CN(C)C(=O)CN1CCOCC1)O2`, inactive: 1.03; that for `C[C@@H]1CN([C@@H](C)CO)C(=O)Cc2cc(NC(=O)Cn3cnnn3)ccc2O[C@@H]1CN(C)C(=O)Nc1ccc2c(c1)OCO2`, inactive: 0.988.
As for `COc1ccc(NC(=O)Nc2ccc3c(c2)C(=O)N([C@H](C)CO)C[C@H](C)[C@H](CN(C)Cc2ccc(Oc4ccccc4)cc2)O3)cc1`, the figure is inactive: 1.01; as for `C[C@@H]1CN([C@H](C)CO)C(=O)Cc2cc(NC(=O)Cc3ccccc3)ccc2O[C@@H]1CN(C)Cc1ccc(C(F)(F)F)cc1`, inactive: 1.03; as for `C[C@@H]1CN([C@@H](C)CO)C(=O)c2cc(NC(=O)Nc3cccc4ccccc34)ccc2O[C@@H](C)CCCCO[C@H]1CN(C)Cc1ccc(C(F)(F)F)cc1`, inactive: 1.01.
As for `C[C@@H]1CCCCO[C@H](CN(C)Cc2ccncc2)[C@@H](C)CN([C@H](C)CO)C(=O)c2cc(NC(=O)CCCCCC(=O)Nc3ccccc3N)ccc2O1`, the figure is inactive: 1.01; as for `CCO[C@@H]1OC(C(=O)N2CCN(Cc3ccc4c(c3)OCO4)CC2)=C[C@H](c2ccc(C(F)(F)F)cc2)[C@H]1CCCOC(=O)NCCCCCC(=O)NO`, inactive: 0.994.
For the compound `O=C(C[C@H]1C[C@@H]2c3cc(NC(=O)Nc4ccccc4)ccc3O[C@@H]2[C@H](CO)O1)NCCN1CCCCC1`, the relative growth was inactive: 0.976.
As for `C[C@H]1CN([C@@H](C)CO)C(=O)c2cccc(NS(=O)(=O)c3ccc(F)cc3)c2O[C@@H]1CN(C)Cc1ccc(Cl)c(Cl)c1`, the figure is inactive: 1.02; as for `C[C@@H]1CN([C@@H](C)CO)C(=O)c2cc(NC(=O)Nc3ccc(C(F)(F)F)cc3)ccc2O[C@@H](C)CCCCO[C@H]1CN(C)Cc1ccc2c(c1)OCO2`, inactive: 0.991.
For `CC(C)NC(=O)N(C)C[C@H]1Oc2ccc(NS(=O)(=O)c3ccccc3)cc2CC(=O)N([C@@H](C)CO)C[C@@H]1C`, the relative growth was inactive: 0.972.
As for `O=C(Cn1cc([N+](=O)[O-])cn1)n1cccn1`, the figure is inactive: 0.966; as for `C[C@@]1(NC(=O)Cc2ccc(S(=O)(=O)N3CCOCC3)s2)CCS(=O)(=O)C1`, inactive: 1.01; as for `C[C@H](CO)N1C[C@H](C)[C@@H](CN(C)S(=O)(=O)c2cn(C)cn2)Oc2c(NC(=O)Nc3ccc4c(c3)OCO4)cccc2C1=O`, inactive: 1.02.
The result for `C=CCNC1=C2C[C@H](C)C[C@H](OC)[C@@H](O)[C@H](C)/C=C(\C)[C@H](OC(N)=O)[C@H](OC)/C=C/C=C(\C)C(=O)NC(=CC1=O)C2=O` reads inactive: 0.981; that for `CC(C)N1CC[C@@H](CNCc2ccc(Oc3ccccc3)cc2)Oc2c(NC(=O)c3ccncc3)cccc2C1=O`, inactive: 1.03; that for `C[C@@H]1CCCCO[C@H](CN(C)C(=O)c2ccncc2)[C@@H](C)CN([C@H](C)CO)C(=O)c2cc(NC(=O)NC3CCCCC3)ccc2O1`, inactive: 0.989.
As for `Cc1noc(C)c1NC(=O)Nc1ccc2c(c1)C(=O)N([C@H](C)CO)C[C@@H](C)[C@H](CN(C)S(=O)(=O)c1cccs1)OCCCC[C@H](C)O2`, the figure is inactive: 0.988; as for `C[C@@H]1CCCCO[C@H](CN(C)C(=O)Nc2ccc(C(F)(F)F)cc2)[C@@H](C)CN([C@@H](C)CO)C(=O)c2cc(NS(=O)(=O)c3ccc(Cl)cc3)ccc2O1`, inactive: 1.
For `CC(=O)NCCCCCC(=O)O`, the relative growth was inactive: 0.987.
The result for `C[C@@H]1CN([C@H](C)CO)C(=O)Cc2cc(NC(=O)Cc3cn(C)c4ccccc34)ccc2O[C@H]1CN(C)CC1CCCCC1` reads inactive: 1.02; that for `C[C@@H]1CN([C@H](C)CO)C(=O)Cc2cc(NS(C)(=O)=O)ccc2O[C@@H]1CN(C)S(=O)(=O)c1ccc(F)cc1`, inactive: 1.01.
As for `C[C@@H]1CN([C@@H](C)CO)C(=O)c2cccc(NC(=O)c3cnccn3)c2O[C@H]1CN(C)CC1CCCCC1`, the figure is inactive: 1; as for `C[C@H]1CN([C@@H](C)CO)C(=O)Cc2cc(NS(=O)(=O)c3cccs3)ccc2O[C@@H]1CN(C)S(=O)(=O)c1cn(C)cn1`, inactive: 1.02; as for `O=C(NO)c1ccc(C(=O)N/N=C/[C@H](O)[C@@H](O)[C@H](O)[C@H](O)CO[C@H]2O[C@H](CO)[C@H](O)[C@H](O)[C@H]2O)cc1`, inactive: 1.
On to `CC(C)(C)OC(=O)NC(=NCCCn1cc(-c2cccc(/C=C/C(=O)NO)c2)nn1)NC(=O)OC(C)(C)C`, for which the relative growth was inactive: 1.03.
As for `COc1ccc(S(=O)(=O)N[C@H]2C=C[C@@H](CC(=O)N3CCC(Cc4ccccc4)CC3)O[C@H]2CO)cc1`, the figure is inactive: 1; as for `Cc1ccc(S(=O)(=O)Nc2ccc3c(c2)C(=O)N([C@H](C)CO)C[C@H](C)[C@H](CN(C)Cc2ccc(C(F)(F)F)cc2)O3)cc1`, inactive: 1.02; as for `C/C=C/c1cccc(-c2nc(C(=O)NCc3ccc(OC)cc3)cc3c2[C@@H](CCO)N([S@](=O)C(C)(C)C)C3)c1`, inactive: 1.01.
As for `CCCC#Cc1ccc2c(c1)O[C@H](CN(C)Cc1ccc3c(c1)OCO3)[C@H](C)CN([C@@H](C)CO)S2(=O)=O`, the figure is inactive: 0.991; as for `C[C@@H]1CN([C@H](C)CO)C(=O)c2cc(NC(=O)CCN3CCOCC3)ccc2O[C@@H]1CN(C)Cc1ccc(C(=O)O)cc1`, inactive: 1.01; as for `C[C@@H]1CN([C@H](C)CO)C(=O)Cc2cc(NS(C)(=O)=O)ccc2O[C@H]1CN(C)C(=O)NC1CCCCC1`, inactive: 0.996.
As for `C[C@@H]1CN([C@H](C)CO)C(=O)Cc2cc(NC(=O)CCCN(C)C)ccc2O[C@H]1CN(C)S(=O)(=O)c1ccccc1`, the figure is inactive: 0.948; as for `C[C@@H]1CCCCO[C@H](CN(C)S(=O)(=O)c2ccc(Cl)cc2)[C@H](C)CN([C@@H](C)CO)C(=O)c2cc(NC(=O)Nc3ccc4c(c3)OCO4)ccc2O1`, inactive: 1.03.

Values taken from the supplement of paper PMC9446081.
